Data reported in US11058699B2, “Method and compositions for inhibition of double stranded DNA viruses” (WISCONSIN ALUMNI RESEARCH FOUNDATION, priority 2008, dated 2021).

System: HPV16 LCR-driven RL containing pseudovirions hpv16wpA-RL
Test: hpv16wpA-RL pseudovirion infectivity assay (Renilla luciferase) in HaCaT cells
Type: cell-based
Settings: for HPV infection in cells kept arrested: HaCaT cells treated 24 hours before hpv16wpA-RL virions added, block maintained

Compound	HPV infection in cells kept arrested	inhibitory effect on HPV infection (HaCaT cells, different concentrations of monastrol)
C[C@@]1(CO)[C@H](O)CC[C@@]2(C)[C@H]1CC[C@H]1C[C@@H]3C[C@@]12CC[C@]3(O)CO [aphidicolin]	significantly and consistently inhibited	
COc1cc([C@@H]2c3cc4c(cc3[C@@H](O[C@@H]3O[C@@H]5CO[C@@H](C)O[C@H]5[C@H](O)[C@H]3O)[C@H]3COC(=O)[C@H]23)OCO4)cc(OC)c1O [etoposide]	significantly and consistently inhibited	
CCOC(=O)C1=C(C)NC(=S)NC1c1cccc(O)c1 (stereo not drawn) [monastrol]		no inhibitory effect
